In the supplement of paper PMC9446081:
Screen size: about 39,000 compounds; about 220 (0.56%) showed activity. The list shows a part of the results.

Test system: Escherichia coli K-12 BW25113
Experiment: relative growth (OD600 normalised to plate interquartile mean) (fraction); higher = less growth inhibition, active = 0.2 or less
Settings: 50 µM; LB; incubation time: overnight (16-24 h)
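Further: static incubation at 37 °C against the wild-type strain, values averaged over two biological replicates.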

Structure (SMILES)	relative growth
CN(CC=CC#CC(C)(C)C)Cc1cccc2ccccc12.Cl	inactive: 0.985
C[C@@H]1CN([C@H](C)CO)C(=O)Cc2cc(NC(=O)CCCCCC(=O)Nc3ccccc3N)ccc2O[C@H]1CN(C)CC1CCCCC1	inactive: 1
C[C@@H]1CCCCO[C@H](CN(C)Cc2ccccc2)[C@H](C)CN([C@@H](C)CO)C(=O)c2cc(NS(=O)(=O)c3ccc(F)cc3)ccc2O1	inactive: 0.995
Cc1noc(C)c1NC(=O)Nc1ccc2c(c1)CC(=O)N([C@@H](C)CO)C[C@@H](C)[C@@H](CN(C)Cc1ccc(C(=O)Nc3ccccc3N)cc1)O2	inactive: 0.983
C=CCOC(=O)[C@@H]1[C@H]2C(=O)O[C@H](c3ccccc3)[C@H](c3ccccc3)N2[C@H](c2ccc(OCCOC(=O)[C@H]3C[C@H]4C(=O)NCC(=O)N4[C@H]3c3cccc(OCCO)c3)cc2)[C@@]12C(=O)Nc1ccccc12	inactive: 1.03
C[C@@H]1CCCCO[C@@H](CN(C)C(=O)Nc2ccc(F)cc2)[C@@H](C)CN([C@H](C)CO)C(=O)c2cc(NS(=O)(=O)c3ccc(Cl)cc3)ccc2O1	inactive: 1.02
CN(c1ncccc1CNc1nc(Nc2ccc3c(c2)CC(=O)N3)ncc1C(F)(F)F)S(C)(=O)=O	inactive: 1.04
C[C@H](CO)N1C[C@H](C)[C@H](CN(C)C(=O)CN(C)C)Oc2cc(C#CC(C)(C)O)ccc2S1(=O)=O	inactive: 0.969
C[C@H]1CN([C@@H](C)CO)C(=O)c2cccc(NC(=O)Nc3ccccc3)c2O[C@@H]1CN(C)Cc1ccc(C(=O)Nc2ccccc2N)cc1	inactive: 1.01
NS(=O)(=O)c1ccc(Cl)c(S(N)(=O)=O)c1	inactive: 0.944
C[C@@H]1CCCCO[C@H](CN(C)C(=O)C2CCCCC2)[C@@H](C)CN([C@@H](C)CO)C(=O)c2cc(NC(=O)C3CCCCC3)ccc2O1	inactive: 1
Cc1nc(=O)c2cccc(O)c2[nH]1	inactive: 0.983
C[C@@H]1CN([C@H](C)CO)C(=O)c2cc(NC(=O)Cn3cnnn3)ccc2O[C@@H]1CN(C)C(=O)Nc1ccc(C(F)(F)F)cc1	inactive: 0.974
NCc1ccccc1Sc1ccccc1CO	inactive: 0.971
COc1cccc(S(=O)(=O)N2C[C@@H](O)COC[C@@H]3O[C@@H](CC(=O)N4CCN(C)CC4)CC[C@H]32)c1	inactive: 0.971
CN(C)C(=O)N1CCOC[C@@]2(C1)CN(c1cnn(C)c1)C(=O)CO2	inactive: 0.989
C[C@@H]1CCCCO[C@H](CN(C)Cc2ccc3c(c2)OCO3)[C@H](C)CN([C@@H](C)CO)C(=O)c2cc(NC(=O)C3CCCCC3)ccc2O1	inactive: 0.992
O=c1c(O)c(O)cc2cccc(O)c(O)c1-2	inactive: 0.831
C[C@H]1CCCCO[C@H](CN(C)S(=O)(=O)c2ccc(Cl)cc2)[C@@H](C)CN([C@@H](C)CO)C(=O)c2cc(NS(=O)(=O)c3ccc(F)cc3)ccc2O1	inactive: 1.03
CN1CCN(C(=O)C[C@H]2CC[C@H]3[C@@H](COC[C@@H](O)CN3C(=O)C3CCCC3)O2)CC1	inactive: 1.03
COc1cccc(NC(=O)N[C@@H]2C=C[C@H](CC(=O)N3CCN(C)CC3)O[C@H]2CO)c1	inactive: 0.998

Structure (SMILES)	relative growth
C[C@@H]1CN([C@H](C)CO)C(=O)c2cc(NC(=O)Nc3cccc4ccccc34)ccc2O[C@@H]1CN(C)C(=O)Nc1ccc2c(c1)OCO2	inactive: 0.999
COc1cccc(NC(=O)N[C@@H]2C=C[C@@H](CC(=O)N3CCN(C)CC3)O[C@H]2CO)c1	inactive: 1.02
C[C@H](CO)N1C[C@H](C)[C@@H](CN(C)CC2CCCCC2)Oc2c(NC(=O)Nc3ccc(C(F)(F)F)cc3)cccc2C1=O	inactive: 0.851
C[C@H]1CN([C@@H](C)CO)C(=O)c2cccc(NS(C)(=O)=O)c2O[C@H]1CN(C)C(=O)Nc1ccc(C(F)(F)F)cc1	inactive: 0.981
COc1ccc(S(=O)(=O)Nc2ccc3c(c2)C(=O)N([C@H](C)CO)C[C@H](C)[C@H](CN(C)S(=O)(=O)c2cn(C)cn2)OCCCC[C@H](C)O3)cc1	inactive: 0.956
CC(=O)N[C@@H](CS)C(=O)O	inactive: 1
O=C(C[C@@H]1C/C=C/CCC(=O)O[C@H](c2ccccc2)CNC1=O)NCc1ccc(Cl)c(C(F)(F)F)c1	inactive: 0.984
COCC(=O)N[C@@H]1C=C[C@H](CC(=O)N2CCCCC2)O[C@@H]1CO	inactive: 1.02
COc1ccc2c3c(n(c2c1)C)[C@H](CO)N(Cc1ccccc1)C[C@]13CCN(CC1)C(=O)Nc1cccc(c1)F	inactive: 1.01
CC(=O)O[C@@]1(C)C[C@@H](O)[C@@H]2C=CO[C@@H](O[C@@H]3O[C@H](CO)[C@@H](O)[C@H](O)[C@H]3O)[C@@H]21	inactive: 1.02
Cc1noc(C)c1NC(=O)Nc1cccc2c1O[C@@H](CN(C)C(=O)Nc1ccc(C(F)(F)F)cc1)[C@H](C)CN([C@H](C)CO)C2=O	inactive: 0.907
C[C@H]1CN([C@@H](C)CO)C(=O)CCCn2cc(nn2)CO[C@H]1CN(C)Cc1ccc(C(=O)Nc2ccccc2N)cc1	inactive: 0.999
CCN(CC)CCOc1ccc2c(c1)C(=O)c1cc(OCCN(CC)CC)ccc1-2	inactive: 1.03
C[C@H](CO)N1C[C@H](C)[C@H](CN(C)S(=O)(=O)c2cccs2)Oc2ccc(NS(C)(=O)=O)cc2C1=O	inactive: 0.999
COc1ccc(C#Cc2cnc3c(c2)C(=O)N([C@@H](C)CO)C[C@@H](C)[C@@H](CN(C)CC2CCOCC2)O3)cc1	inactive: 0.992
C[C@H](CO)N1C[C@H](C)[C@H](CN(C)S(=O)(=O)c2cn(C)cn2)Oc2ccc(NC(=O)Cn3cnnn3)cc2C1=O	inactive: 1
C[C@H](CO)N1C[C@H](C)[C@@H](CN(C)C(=O)Cc2ccncc2)Oc2ncc(C#Cc3ccccc3F)cc2C1=O	inactive: 1
O=C(C[C@H]1C=C[C@@H](NC(=O)CN2CCOCC2)[C@H](CO)O1)NCc1cccc(F)c1	inactive: 1
C[C@@H]1CN([C@H](C)CO)C(=O)c2cc(NS(C)(=O)=O)ccc2O[C@H]1CN(C)S(=O)(=O)c1ccc(Cl)cc1	inactive: 0.982
O=C(C[C@@H]1CC[C@@H]2[C@H](COC[C@@H](O)CN2C(=O)c2ccccn2)O1)NC1CCC1	inactive: 1.07
C[C@@H]1CN([C@@H](C)CO)C(=O)c2cccc(NC(=O)C3CC3)c2O[C@H]1CN(C)S(=O)(=O)c1cn(C)cn1	inactive: 0.974

Structure (SMILES)	relative growth
CCc1nc2ccc(C(=O)NCCN3CCNC3=O)cn2c1N(CC)Cc1cccc(Br)c1	inactive: 1
C[C@@H]1CN([C@H](C)CO)C(=O)Cc2cc(NS(=O)(=O)c3ccccc3)ccc2O[C@H]1CN(C)S(=O)(=O)c1cn(C)cn1	inactive: 0.979
CC(C)(C)c1ccc(NC(=O)c2ccc(C(C)(C)C)s2)cc1	inactive: 1.04
COc1ccc(NC(=O)N(C)C[C@H]2OCCCC[C@H](C)Oc3ccc(NC(=O)Nc4ccccc4)cc3C(=O)N([C@@H](C)CO)C[C@@H]2C)cc1	inactive: 1.02
COc1ccc(NC(=O)Nc2ccc3c(c2)C(=O)N([C@@H](C)CO)C[C@@H](C)[C@H](CN(C)C(=O)c2ccccc2)OCCCC[C@H](C)O3)cc1	inactive: 0.997
COCc1cn(CC[C@H]2CC[C@H](NC(=O)CCN3CCCCC3)[C@@H](CO)O2)nn1	inactive: 1.02
Cc1noc(C)c1S(=O)(=O)N(C)C[C@H]1Oc2ccc(NS(=O)(=O)c3ccccc3)cc2C(=O)N([C@@H](C)CO)C[C@H]1C	inactive: 1
Cc1noc(C)c1NC(=O)Nc1ccc2c(c1)C(=O)N([C@@H](C)CO)C[C@@H](C)[C@H](CN(C)C(=O)Nc1ccccc1)OCCCC[C@H](C)O2	inactive: 1.02
O=C(O)c1cn2cccc(O)c2n1	inactive: 0.997
COc1ccc([C@@H](NC(=O)C2CCN(CCOc3ccc(Cl)cc3Cl)CC2)c2ccccn2)cc1	inactive: 1.01
COc1ccccc1CNC(=O)C[C@@H]1CC[C@@H]2[C@H](COC[C@H](O)CN2C(=O)Nc2ccc(Cl)cc2)O1	inactive: 0.943
O=C(C[C@H]1C[C@H]2c3cc(NC(=O)C4CCOCC4)ccc3O[C@H]2[C@@H](CO)O1)NCc1ccc2c(c1)OCO2	inactive: 0.994
Cc1ccc(S(=O)(=O)Nc2ccc3c(c2)C(=O)N([C@@H](C)CO)C[C@H](C)[C@@H](CN(C)S(=O)(=O)c2cn(C)cn2)O3)cc1	inactive: 0.932
CCO[C@H]1OC(C(=O)N2CCOCC2)=C[C@@H](c2ccc3c(c2)OCO3)[C@@H]1CCCOC(=O)NCCCCCC(=O)NO	inactive: 0.999
CCN(Cc1cc(C(F)(F)F)ccc1-c1cc(CC(=O)O)ccc1OC)C(=O)NCc1ccccc1	inactive: 0.998
Cc1noc(C)c1NC(=O)Nc1ccc2c(c1)C(=O)N([C@H](C)CO)C[C@@H](C)[C@H](CN(C)C(=O)Nc1ccccc1)OCCCC[C@@H](C)O2	inactive: 0.994
CC(C)NC(=O)Nc1ccc2c(c1)C(=O)N([C@H](C)CO)C[C@@H](C)[C@@H](CN(C)S(=O)(=O)c1cccs1)O2	inactive: 0.979
COc1ccc(C#Cc2cnc3c(c2)C(=O)N([C@H](C)CO)C[C@@H](C)[C@H](CN(C)C(=O)CC2CC2)O3)cc1	inactive: 1.01
COC(=O)c1ccc([C@H](c2c(N)n(CC(C)C)c(=O)[nH]c2=O)N2CCOCC2)cc1	inactive: 1.02
O=C(NCC[C@H]1CCCCN1S(=O)(=O)c1ccc(F)cc1)C(=O)NCCN1CCOCC1	inactive: 0.997
